Out of some 300,000 compounds screened, about 1,200 (0.4%) were called active. The inconclusive results got no clear call from the source; some entries with a clear call stand among them for comparison. The call rests on the fitted dose curve; in most records, active means well fitted inhibition curve with a large enough effect; inconclusive means small, poorly fitted or top-dose-only effect, or another doubt; inactive means no such curve, though single readings can be large or run the other way. Potencies beside an inconclusive call are fits to weak or partial responses and may not hold up.
What follows are compounds tested against Lysosomal alpha-glucosidase (Homo sapiens) (UniProt P10253) (assay: qHTS Assay for Inhibitors and Activators of Human alpha-Glucosidase Cleavage of Glycogen). Details: recombinant GAA, glycogen substrate, Amplex Red glucose oxidase fluorescence; activity change, negative = inhibition: at 76.4 µM (top of the series) unless noted.
Method in brief: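 Natural-substrate format: glycogen cleavage by 4 nM human enzyme, glucose read by Amplex Red coupling (Ex 573, Em 610 nm). Normalized to enzyme and no-enzyme controls.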
Potency means the concentration at half of the fitted maximal effect.
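Wherever activity change, negative = inhibition is given: 0% = full enzyme reaction and -100% = no-enzyme basal signal.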

Structure (SMILES)	Potency	activity change, negative = inhibition
CN(C)S(=O)(=O)c1ccc(C(=O)NNc2nc(-c3ccccc3)c3cc(Br)ccc3n2)cc1	inconclusive: 10 µM [inhibitor, partial curve]	
CC(C)C[C@H]1C(=O)N2CCCC2[C@]2(O)O[C@](NC(=O)[C@@H]3C=C4c5cccc6[nH]cc(c56)CC4N(C)C3)(C(C)C)C(=O)N12 (some centres not stated)	inconclusive: 7.94 µM [activator, partial curve]	
O=c1cc(-c2ccc(O)c(O)c2)oc2c(C3O[C@H](CO)[C@@H](O)[C@H](O)[C@H]3O)c(O)cc(O)c12 (some centres not stated)	active: 4.47 µM	
Cc1[nH]n(-c2ccccc2)c(=O)c1C(C[N+](=O)[O-])c1ccccc1Cl (configuration not stated)	inconclusive: 24.9 µM [inhibitor, partial curve]	
CCOc1ccc(-n2c(O)c(N=Nc3c(C)n(C)n(-c4ccccc4)c3=O)c(=O)[nH]c2=O)cc1	inconclusive: 17.6 µM [inhibitor, partial curve]	
CCOc1ccccc1-n1c(O)c(C=Nc2ccc(N(CC)CC)cc2)c(=O)[nH]c1=O	inconclusive: 28.2 µM [inhibitor, single point]	
COc1cc(/C=N/Nc2ccc(S(N)(=O)=O)cc2)cc(OC)c1OC	inconclusive: 28.2 µM [inhibitor, partial curve]	
Cc1cc(/C=C2/C(=O)NC(=O)N(Cc3ccco3)C2=O)c(C)n1-c1ccc(C(=O)O)cc1	inconclusive: 44.7 µM [inhibitor, single point]	
Cn1c(=O)c2c(nc(N/N=C/c3c(O)n(-c4ccccc4)c(=S)[nH]c3=O)n2C)n(C)c1=O	inconclusive: 3.98 µM [inhibitor, full curve]	
O[C@H]1[C@H](O)[C@@H](O)CN2CC[C@H](O)[C@H]12	active: 1.98 µM	
O=C(Cc1cc(=O)[nH][nH]1)N/N=C/c1cccc2ccccc12	inconclusive: 39.8 µM [inhibitor, partial curve]	
O=C(Nc1ccc(F)cc1)Oc1ccc[nH]c1=O	inconclusive: 9.92 µM [inhibitor, partial curve]	
CC1OC(NCCc2ccccc2)C(O)C(O)C1O (configuration not stated)	inconclusive: 31.6 µM [inhibitor, partial curve]	
CC1N(O)C2CCCCCC2N1O (configuration not stated)	inconclusive: 12.5 µM [inhibitor, partial curve]	
CN1CC(C(=O)c2ccc(Cl)cc2)C(c2ccc(N(C)C)cc2)C1 (configuration not stated)		inactive: -4.32%
O=C1NC(=O)N(Cc2ccccc2)C(=O)/C1=C/N1CCCc2ccccc21	inconclusive: 39.8 µM [inhibitor, single point]	
CCN1C(=O)/C(=C\c2ccc([N+](=O)[O-])s2)C(=O)NC1=S		inactive: -29.3%
O=C1C2CCCN2C(c2cccs2)N1c1ccccn1 (configuration not stated)	inconclusive: 100 µM [activator, partial curve, poor fit]	
C=CCOc1c(Cl)cc(CNc2ccc3[nH]c(=O)[nH]c3c2)cc1OC	inconclusive: 6.31 µM [inhibitor, full curve]	
O=c1[nH]c(=O)n(Cc2ccco2)c(O)c1/C=N/N1CCCCC1	inconclusive: 4.43 µM [inhibitor, full curve, poor fit]	
O=c1[nH]c(=O)n(Cc2ccco2)c(O)c1/C=N/N1CCCCCC1		inactive: -52.4%

Structure (SMILES)	Potency	activity change, negative = inhibition
CC(=Nc1ccccc1N)c1c(O)n(C)c(=O)[nH]c1=O	inconclusive: 35.5 µM [inhibitor, single point]	
O=C(NC1CCCCCC1)c1ccc[nH]c1=S	inconclusive: 28.2 µM [inhibitor, single point]	
CC1CCCCN1CC(O)c1c[nH]c2ccccc12 (configuration not stated)		inactive: -2.28%
CCOC(=O)c1[nH]c(=O)c2ccccc2c1O	inconclusive: 35.5 µM [inhibitor, single point]	
O=C1CC(NC(=O)C(F)(F)F)=NN1c1ccccc1	active: 17.8 µM	
CCN(CC)c1ccc(CC2C(=O)N(C)C(=O)N(C)C2=O)cc1	inconclusive: 14 µM [inhibitor, single point]	
Cc1cc(OCC(=O)N2C[C@H]3C[C@@H](C2)c2cccc(=O)n2C3)c2c(C)cc(=O)oc2c1	inconclusive: 50.1 µM [inhibitor, single point]	
Cc1ccc(N/N=C/c2c(O)n(-c3ccccc3)c(=O)[nH]c2=O)cc1	inconclusive: 9.92 µM [inhibitor, partial curve]	
Cc1cc(/C=C2\C(=O)NC(=O)N(Cc3ccco3)C2=O)c(C)n1-c1ccc(C(=O)O)cc1	inconclusive: 35.5 µM [inhibitor, partial curve]	
COc1ccc(C2NCc3ccc4c(c3-n3cccc32)OCO4)cc1O (configuration not stated)	inconclusive: 39.5 µM [inhibitor, single point]	
CN1CCN2c3ccc(N)cc3CC3(C(=O)NC(=O)NC3=O)C2C1 (configuration not stated)	inconclusive: 14 µM [inhibitor, partial curve]	
CC1=NNC(=O)C1Cc1ccc(F)cc1 (configuration not stated)	inconclusive: 31.4 µM [inhibitor, single point]	
CNC(=O)Oc1cccc2ccccc12	active: 35.5 µM	
C/C(=N\Nc1ccccc1)c1c(O)[nH]c(=O)[nH]c1=O	inconclusive: 12.6 µM [inhibitor, partial curve]	
CC1CC2(O)c3nonc3CCC2N1O (configuration not stated)	inconclusive: 28.2 µM [inhibitor, single point]	
COc1ccc(C(=O)NC(=S)NNC(=O)c2cccnc2)cc1	inconclusive: 50.1 µM [inhibitor, single point]	
c1ccc2c(c1)CNc1ccccc1O2	inconclusive: 35.5 µM [inhibitor, partial curve]	
CC(=O)c1cccc(OCC(O)CN2CC=C(c3ccccc3)CC2)c1 (configuration not stated)	inconclusive: 39.8 µM [activator, partial curve]	
Nc1cncc(C(=O)O)c1	inactive	
COc1ccc(NC(=O)CN2CC=C(c3ccccc3)CC2)cc1S(=O)(=O)N1CCOCC1	inconclusive: 24.9 µM [activator, partial curve]	
COc1cc(/C=N/NP(=S)(c2ccccc2)c2ccccc2)ccc1O	active: 24.9 µM	

Reference: PubChem BioAssay AID2100 (National Center for Advancing Translational Sciences (NCATS), 2009)
